Our source for the binding signal values is PMC5700166.

What all share (test): protein-binding microarray (PBM)
What all share (conditions): PBM: ~300 nM protein, 6 mM HEPES pH 7.8, 80 mM KCl, 0.5 mM EDTA, 0.5 mM EGTA, 6% glycerol, 35 ng/ul poly-dIdC, 1% milk, 1 h, room temperature; Ap Aiptasia and Nv Nematostella (sea anemones) / Co Capsaspora / Aq Amphimedon (sponge) / Dm Drosophila / Hu human; RHD is the Rel homology domain; high values mean tight binding; most listed sequences are background and not binding sites; double strand, one strand shown

One test has as its target T1, GST-Ap-NF-kB RHD (UniProt A0A913YAJ5).
T1 sequence: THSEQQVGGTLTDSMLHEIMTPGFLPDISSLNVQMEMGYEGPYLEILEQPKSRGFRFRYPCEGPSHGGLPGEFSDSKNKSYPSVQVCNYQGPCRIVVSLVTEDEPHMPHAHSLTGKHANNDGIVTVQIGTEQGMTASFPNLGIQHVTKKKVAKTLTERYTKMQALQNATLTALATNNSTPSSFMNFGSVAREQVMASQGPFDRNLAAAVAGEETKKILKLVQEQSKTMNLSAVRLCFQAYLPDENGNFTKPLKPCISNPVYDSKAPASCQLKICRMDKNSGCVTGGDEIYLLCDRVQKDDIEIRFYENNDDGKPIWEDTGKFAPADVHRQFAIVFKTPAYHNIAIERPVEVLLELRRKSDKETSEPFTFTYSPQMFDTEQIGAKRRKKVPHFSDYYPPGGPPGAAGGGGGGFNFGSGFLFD

The target in test [1] is T2, GST-Nv-NF-kB (Cys allele) (UniProt E5G601).
T2 sequence: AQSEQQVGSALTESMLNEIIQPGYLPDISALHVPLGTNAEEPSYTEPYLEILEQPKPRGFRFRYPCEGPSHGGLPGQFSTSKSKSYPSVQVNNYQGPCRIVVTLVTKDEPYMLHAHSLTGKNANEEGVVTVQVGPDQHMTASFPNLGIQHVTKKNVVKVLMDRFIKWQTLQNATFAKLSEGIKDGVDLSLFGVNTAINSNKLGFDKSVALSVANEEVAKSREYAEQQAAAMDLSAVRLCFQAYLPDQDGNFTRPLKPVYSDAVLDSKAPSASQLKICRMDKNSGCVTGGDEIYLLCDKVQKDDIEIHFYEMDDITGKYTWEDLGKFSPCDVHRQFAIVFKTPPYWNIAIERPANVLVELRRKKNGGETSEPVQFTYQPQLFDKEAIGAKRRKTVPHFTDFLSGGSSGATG

The target of the next test is T3, GST-Co-NF-kB (UniProt F1ARL5).
T3 sequence: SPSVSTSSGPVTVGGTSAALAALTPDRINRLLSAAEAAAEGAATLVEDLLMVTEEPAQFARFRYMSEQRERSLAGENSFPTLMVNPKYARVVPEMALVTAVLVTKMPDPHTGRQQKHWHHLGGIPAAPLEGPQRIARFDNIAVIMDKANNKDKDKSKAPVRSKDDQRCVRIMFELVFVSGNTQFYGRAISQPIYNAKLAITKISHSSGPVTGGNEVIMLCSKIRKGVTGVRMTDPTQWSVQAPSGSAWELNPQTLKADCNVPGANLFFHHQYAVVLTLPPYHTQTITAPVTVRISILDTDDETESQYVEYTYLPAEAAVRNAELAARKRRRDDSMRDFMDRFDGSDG

The target of the next test is T4, GST-Dm-Relish (UniProt Q94527).
T4 sequence: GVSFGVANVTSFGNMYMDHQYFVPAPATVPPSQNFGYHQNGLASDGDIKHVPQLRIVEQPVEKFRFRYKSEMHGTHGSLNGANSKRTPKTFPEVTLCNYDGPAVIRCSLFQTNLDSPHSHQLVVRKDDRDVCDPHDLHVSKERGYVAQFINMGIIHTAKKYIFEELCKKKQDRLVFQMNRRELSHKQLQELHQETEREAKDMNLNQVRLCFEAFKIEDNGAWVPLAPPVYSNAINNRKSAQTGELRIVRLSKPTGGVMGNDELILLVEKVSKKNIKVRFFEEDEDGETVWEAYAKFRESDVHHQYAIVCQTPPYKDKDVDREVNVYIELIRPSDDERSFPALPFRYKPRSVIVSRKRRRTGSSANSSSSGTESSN

A further test deals with T5, GST-Aq-NF-kB (UniProt A9Y5G7).
T5 sequence: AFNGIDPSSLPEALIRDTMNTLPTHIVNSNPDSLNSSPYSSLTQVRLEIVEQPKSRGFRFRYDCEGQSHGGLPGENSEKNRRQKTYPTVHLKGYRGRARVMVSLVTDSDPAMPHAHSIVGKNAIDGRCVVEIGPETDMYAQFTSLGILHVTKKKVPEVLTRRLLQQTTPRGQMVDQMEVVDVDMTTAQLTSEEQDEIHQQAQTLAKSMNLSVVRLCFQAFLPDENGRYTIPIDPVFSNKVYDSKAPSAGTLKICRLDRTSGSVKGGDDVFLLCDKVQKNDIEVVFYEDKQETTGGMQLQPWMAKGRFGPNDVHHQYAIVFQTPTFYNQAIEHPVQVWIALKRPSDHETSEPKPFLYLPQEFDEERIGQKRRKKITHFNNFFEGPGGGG

The list shows a part of the results, in another mix than the full data. The list includes weakly bound sequences.

Regarding “CCGATTAACATCACGCATACGTATGATGTTAATCGGGTCTTGATTCGCTTGACGCTGCTG”, the binding signal with GST-Ap-NF-kB RHD is -1.3 z-score; in test [1] it was -0.198 z-score; in the test with GST-Co-NF-kB it was -0.236 z-score; with GST-Dm-Relish, -0.25 z-score; in the test with GST-Aq-NF-kB it was -0.473 z-score.
In the same order, the values of “CCGATTAACATCAGCGCCTGTGCTGATGTTAATCGGGTCTTGATTCGCTTGACGCTGCTG” are -1.03 z-score, -1.15 z-score, -1.18 z-score, -1.43 z-score and -0.644 z-score.
“CCGATTAACATCATAAATGACATTGATGTTAATCGGGTCTTGATTCGCTTGACGCTGCTG”: the binding signal in the test with GST-Ap-NF-kB RHD is -0.978 z-score; in test [1] it was -0.0537 z-score; in the test with GST-Co-NF-kB it was -1 z-score; with GST-Dm-Relish it was -0.0568 z-score; in the test with GST-Aq-NF-kB it was -0.39 z-score.
On to “CCGATTAACATCAGTGCGGTCTGTGATGTTAATCGGGTCTTGATTCGCTTGACGCTGCTG”, for which the binding signal was -0.000285 z-score with GST-Ap-NF-kB RHD; -0.144 z-score in test [1]; 0.303 z-score with GST-Co-NF-kB; 0.39 z-score with GST-Dm-Relish; -0.15 z-score with GST-Aq-NF-kB.
In the same order, the values of “CCGATTAACATCATGGACCTTTCTGATGTTAATCGGGTCTTGATTCGCTTGACGCTGCTG” are -0.605 z-score, 0.0211 z-score, -0.0945 z-score, -0.344 z-score and 0.00534 z-score.
In the same order, the values of “CCGATTAACATCATTGGCGGTCATGATGTTAATCGGGTCTTGATTCGCTTGACGCTGCTG” are -0.0652 z-score, 0.0868 z-score, -0.444 z-score, -0.783 z-score and -0.151 z-score.
The matching figures for “CCGATTAACATCAGGAATTTGCCTGATGTTAATCGGGTCTTGATTCGCTTGACGCTGCTG”: -0.935 z-score, -0.447 z-score, -0.617 z-score, 0.169 z-score and 0.224 z-score.
Take “CCGATTAACATCAGGACACTCCCTGATGTTAATCGGGTCTTGATTCGCTTGACGCTGCTG”: the binding signal with GST-Ap-NF-kB RHD was 1.81 z-score; in test [1] it was 2.51 z-score; in the test with GST-Co-NF-kB, 0.296 z-score; in the test with GST-Dm-Relish it was 0.845 z-score; in the test with GST-Aq-NF-kB it was 5.35 z-score.
The matching figures for “CCGATTAACATCAACCCGAGTCGTGATGTTAATCGGGTCTTGATTCGCTTGACGCTGCTG”: -0.242 z-score, -0.289 z-score, 0.851 z-score, -0.35 z-score and -0.0629 z-score.
In the same order, the values of “CCGATTAACATCAGTGCAGAACCTGATGTTAATCGGGTCTTGATTCGCTTGACGCTGCTG” are -0.165 z-score, -0.337 z-score, -0.855 z-score, -0.121 z-score and -0.266 z-score.
Consider “CCGATTAACATCACCTTTTACATTGATGTTAATCGGGTCTTGATTCGCTTGACGCTGCTG”, for which the binding signal with GST-Ap-NF-kB RHD was -0.0214 z-score; in test [1], 0.114 z-score; with GST-Co-NF-kB it was 0.0582 z-score; in the test with GST-Dm-Relish, 0.597 z-score; in the test with GST-Aq-NF-kB, 0.585 z-score.
In the same order, the values of “CCGATTAACATCATCGTCGCCTATGATGTTAATCGGGTCTTGATTCGCTTGACGCTGCTG” are 0.0836 z-score, -0.27 z-score, -0.988 z-score, -0.348 z-score and -0.56 z-score.
The matching figures for “CCGATTAACATCAAAACGCTAAGTGATGTTAATCGGGTCTTGATTCGCTTGACGCTGCTG”: -0.491 z-score, -1 z-score, -0.312 z-score, -0.24 z-score and -0.323 z-score.
As for “CCGATTAACATCAAGCAGGATATTGATGTTAATCGGGTCTTGATTCGCTTGACGCTGCTG”, the binding signal with GST-Ap-NF-kB RHD is 0.303 z-score; in test [1], 0.0565 z-score; with GST-Co-NF-kB, 0.0759 z-score; in the test with GST-Dm-Relish, -0.783 z-score; in the test with GST-Aq-NF-kB, -0.308 z-score.
